Laboratory results as given in US20230416360A1 (SIMCERE ZAIMING PHARMACEUTICAL, published 2023).

Tests used:
[1] = molecular target: T1, human CD22 (full length, on cells) (human, UniProt P20273 20-847); experiment: FACS, CHO-K1-human CD22 2C4 cells
T1 construct: Raji cells carry endogenous human CD22; also called CHO-K1-human CD22 2C4; CHO-K1-human CD22 1G5
T1 sequence: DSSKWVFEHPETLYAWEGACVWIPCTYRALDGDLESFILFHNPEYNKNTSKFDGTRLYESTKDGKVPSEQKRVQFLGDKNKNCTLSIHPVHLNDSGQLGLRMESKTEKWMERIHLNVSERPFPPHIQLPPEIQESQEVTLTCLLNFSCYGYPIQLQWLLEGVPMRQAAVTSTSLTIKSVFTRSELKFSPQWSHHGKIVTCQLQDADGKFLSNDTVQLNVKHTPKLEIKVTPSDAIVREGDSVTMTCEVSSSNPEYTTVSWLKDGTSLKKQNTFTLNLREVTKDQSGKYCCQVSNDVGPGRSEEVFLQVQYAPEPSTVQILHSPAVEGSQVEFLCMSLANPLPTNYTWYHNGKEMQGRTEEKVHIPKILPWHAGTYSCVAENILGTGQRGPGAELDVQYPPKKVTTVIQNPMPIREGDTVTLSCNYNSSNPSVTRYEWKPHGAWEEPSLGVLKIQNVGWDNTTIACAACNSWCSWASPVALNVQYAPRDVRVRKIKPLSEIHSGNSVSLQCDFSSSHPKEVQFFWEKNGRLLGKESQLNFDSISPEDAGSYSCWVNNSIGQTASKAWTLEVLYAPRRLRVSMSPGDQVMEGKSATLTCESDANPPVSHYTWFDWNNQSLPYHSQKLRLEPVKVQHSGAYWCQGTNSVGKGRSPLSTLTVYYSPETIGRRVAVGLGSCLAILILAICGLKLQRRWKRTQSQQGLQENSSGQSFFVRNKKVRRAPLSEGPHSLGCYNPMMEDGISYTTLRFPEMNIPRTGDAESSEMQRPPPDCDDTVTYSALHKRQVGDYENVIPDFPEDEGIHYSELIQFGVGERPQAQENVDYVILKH
Excerpt: (§1) The required cells were scale-up cultured in a T-75 cell culture flask to the logarithmic growth phase. For the adherent cell CHO-K1, the medium was aspirated, the cells were washed 2 times with PBS buffer, and then digested with trypsin. After the digestion was terminated, the cells were washed 2 times with PBS buffer. For suspension cell Raji, the medium supernatant was directly centrifuged and discarded, and the cell pellet was washed 2 times with PBS. […] The mixture was centrifuged and washed 3 times with PBS buffer, Alexa Flour 488-labeled secondary antibody (purchased from Invitrogen, catalog number: A-11013) was added at 50 μl/well, and incubated on ice for 1 hour. The obtained mixture was centrifuged and washed 5 times with PBS, and FACS (FACS Canto™, purchased from BD Company) was used for detection and result analysis. Data analysis was performed by software (CellQuest) to obtain the mean fluorescence density (MFI) of the cells. And then software (GraphPad Prism8) was used for analysis, data fitting, and EC50 value calculation.

[2] = molecular target: T1, human CD22 (full length, on cells); experiment: FACS, Raji cells
Excerpt: as §1

human CD22-ECD-His = molecular target: T2, human CD22-ECD-His (human, UniProt P20273 20-687); experiment: ELISA, antibody coated 2 ug/mL, hCD22-ECD-His titrated
T2 construct: Made in HEK293E, purified on nickel column; also called hCD22-ECD-His; recombinant human CD22-ECD His; not shown: His tag
T2 sequence: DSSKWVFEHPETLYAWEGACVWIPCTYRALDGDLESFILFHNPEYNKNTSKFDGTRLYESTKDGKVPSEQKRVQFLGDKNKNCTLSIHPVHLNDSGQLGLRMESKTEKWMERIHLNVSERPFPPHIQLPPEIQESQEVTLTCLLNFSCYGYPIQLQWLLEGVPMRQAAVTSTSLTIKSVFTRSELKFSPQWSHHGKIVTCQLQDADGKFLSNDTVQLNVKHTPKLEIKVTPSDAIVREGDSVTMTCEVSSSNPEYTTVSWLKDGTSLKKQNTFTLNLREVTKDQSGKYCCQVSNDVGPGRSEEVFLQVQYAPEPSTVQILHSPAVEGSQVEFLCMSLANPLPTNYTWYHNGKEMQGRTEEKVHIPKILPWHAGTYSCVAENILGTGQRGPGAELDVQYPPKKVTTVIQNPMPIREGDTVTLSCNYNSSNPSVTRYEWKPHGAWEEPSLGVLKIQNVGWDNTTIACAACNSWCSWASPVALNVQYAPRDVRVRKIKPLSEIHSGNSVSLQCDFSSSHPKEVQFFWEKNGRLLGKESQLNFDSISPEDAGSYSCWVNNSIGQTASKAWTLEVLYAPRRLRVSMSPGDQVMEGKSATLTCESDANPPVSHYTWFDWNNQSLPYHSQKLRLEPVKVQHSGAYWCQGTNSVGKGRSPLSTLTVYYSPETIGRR

B1: hL22 scFv-hFc (Fc fusion)
chain: QVQLQQSGAEVKKPGSSVKVSCKASGYTFTSYWLHWVRQAPGQGLEWIGYINPRNDYTEYNQNFKDKATITADESTNTAYMELSSLRSEDTAFYFCARRDITTFYWGQGTTVTVSSGGGGSGGGGSGGGGSDIQLTQSPSSLSASVGDRVTMSCKSSQSVLYSANHKNYLAWYQQKPGKAPKLLIYWASTRESGVPSRFSGSGSGTDFTFTISSLQPEDIATYYCHQYLSSWTFGGGTKLEIK[human IgG1 Fc with changes cut from this listing]
notes: Control antibody as scFv-hFc; also called HL22 scFv-Fc
EC50 [1]: 2.5 nM
Max MFI [1]: 15200
EC50 [2]: 3.8 nM
Max MFI [2]: 3080
EC80 (human CD22-ECD-His): 0.93 nM
